Structures can show the parent of a compound that is named as a salt. ± gives the standard deviation of the averaged measurements. The full ranking holds about 3,100 compounds; the median of “mean cytoplasmic OPP incorporation (global translation) relative to DMSO” is about 100, and the lowest 2% start at about 56. The list shows a part of the results.
tested on: U2OS; assay: mean cytoplasmic OPP incorporation (global translation) relative to DMSO (% of DMSO); higher = more protein synthesis; details: 10 µM; 24 h
Protocol: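 Primary image-based screen in U2OS cells: compounds at 10 uM for 24 h, then a 1 h o-propargyl-puromycin (OPP) pulse, click labelling, and high-throughput microscopy. Mean cytoplasmic OPP intensity and nuclei count were normalised to DMSO wells within each plate (DMSO = 100) and averaged over triplicate plates.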

Row | SMILES | mean cytoplasmic OPP incorporation
1 | CN1CCN(c2c(F)cc3c(=O)c(C(=O)O)cn4c3c2OCN4C)CC1 [Marbofloxacin] | 101
2 | COc1cc(-c2ccc(=O)[nH]n2)ccc1OC(F)F [Zardaverine] | 104 ± 6.6
3 | Cc1ccc([N+](=O)[O-])cc1S(=O)(=O)N(C)/N=C/c1cnc2ccc(Br)cn12 | 44.3
4 | CCCCCCCc1ccc(CCc2cccc(O)c2C(=O)O)cc1 | 75.5
5 | c1ccc(COCCCc2c[nH]cn2)cc1 [Proxyfan Oxalate] | 97
6 | CC[N+](CC)(CC)CC(=O)Nc1c(C)cccc1C [QX 314 bromide] | 97.1
7 | CC[N+](CC)(CC)CC(=O)Nc1c(C)cccc1C [QX-314 bromide] | 91.7
8 | CC[N+](CC)(CC)CC(=O)Nc1c(C)cccc1C [QX 314 chloride] | 103
9 | CCCCNc1c(C(=O)OCC)c(C)nc2c1cnn2CC [Tracazolate hydrochloride] | 117 ± 7
10 | CC(C)c1ccc(Cn2ccc3c4c(N)nc(NC5CC5)nc4ccc32)cc1 | 40.1
11 | COc1cc(NC(C)CCCN)c2ncccc2c1 (stereo not drawn) [Primaquine diphosphate] | 36.1
12 | CCCCC1(COC(=O)CCC(=O)O)C(=O)N(c2ccccc2)N(c2ccccc2)C1=O [Suxibuzone] | 94.7
13 | CN(C)[C@@H]1C(O)=C(C(N)=O)C(=O)[C@@]2(O)C(O)=C3C(=O)c4c(O)cccc4[C@@](C)(O)[C@H]3[C@H](O)[C@@H]12 [Oxytetracycline (Terramycin)] | 104
14 | CN(C)[C@@H]1C(O)=C(C(N)=O)C(=O)[C@@]2(O)C(O)=C3C(=O)c4c(O)cccc4[C@@](C)(O)[C@H]3[C@H](O)[C@@H]12 [Oxytetracycline dihydrate] | 106 ± 13
15 | COc1cc(OC)c(/C=C/S(=O)(=O)Cc2ccc(OC)c(NCC(=O)O)c2)c(OC)c1 | 95.4 ± 6.3
16 | OC(CN1CCN(c2cccc(Cl)c2)CC1)C(c1ccccc1)c1ccccc1 (stereo not drawn) | 98.8
17 | COc1ccc(-c2ccc3c(N4CCOCC4)nc(N4C[C@@H](C)O[C@@H](C)C4)nc3n2)cc1CO | 88.2
18 | Cc1cc(-c2ccccc2)nnc1NCCN1CCOCC1 [Minaprine dihydrochloride] | 99.4
19 | NC(N)=Nc1nc(CSCC/C(N)=N/S(N)(=O)=O)cs1 [Famotidine] | 97.4
20 | NC(N)=Nc1nc(CSCC/C(N)=N/S(N)(=O)=O)cs1 [Famotidine (Pepcid)] | 108
21 | Cl.N=C(N)NCCC[C@H](N)C(=O)O [L-Arginine HCl] | 99
22 | CC/C(=C(/CC)c1ccc(O)cc1)c1ccc(O)cc1 [Diethylstilbestrol] | 107
23 | CC1=C(/C=C/C(C)=C/C=C/C(C)=C\C(=O)O)C(C)(C)CCC1 [13-cis Retinoic acid] | 101
24 | CC1=C(/C=C/C(C)=C/C=C/C(C)=C\C(=O)O)C(C)(C)CCC1 [Isotretinoin] | 90.6
25 | CSc1ccc2c(c1)N(CCC1CCCCN1C)c1ccccc1S2 (stereo not drawn) [Thioridazine hydrochloride] | 116
26 | CC(C)(Sc1ccc(CCN(CCCCC2CCCCC2)C(=O)NC2CCCCC2)cc1)C(=O)O | 102 ± 4.1

Row | SMILES | mean cytoplasmic OPP incorporation
27 | O=C1C=CC(=O)C2=C1C1c3ccccc3C2c2ccccc21 | 103
28 | CC(/C=C/C(=O)NO)=C\[C@@H](C)C(=O)c1ccc(N(C)C)cc1 [Trichostatin A] | 66.2 ± 33
29 | Cc1cc(Nc2nc(N[C@@H](C)c3ccc(F)cc3)c(C#N)cc2F)n[nH]1 | 92.2
30 | CCN(CCO)CCCC(C)Nc1ccnc2cc(Cl)ccc12 (stereo not drawn) [Hydroxychloroquine] | 93
31 | CCN(CCO)CCCC(C)Nc1ccnc2cc(Cl)ccc12 (stereo not drawn) [Hydroxychloroquine sulfate] | 102
32 | Cc1nc(Nc2ncc(C(=O)Nc3c(C)cccc3Cl)s2)cc(N2CCN(CCO)CC2)n1 | 123
33 | CCN1CCN(Cc2ccc(-c3cc4c(N[C@H](C)c5ccccc5)ncnc4[nH]3)cc2)CC1 | 99.4 ± 3.2
34 | CCOC(=O)c1c(CSc2ccccc2)n(C)c2cc(Br)c(O)c(CN(C)C)c12 [Arbidol HCl] | 109
35 | CC(=O)[C@H]1CC[C@H]2[C@@H]3CC=C4C[C@@H](O)CC[C@]4(C)[C@H]3CC[C@]12C [Pregnenolone] | 102 ± 3
36 | COc1ccc(CC2c3cc(OC)c(OC)cc3CC[N+]2(C)CCC(=O)OCCCCCOC(=O)CC[N+]2(C)CCc3cc(OC)c(OC)cc3C2Cc2ccc(OC)c(OC)c2)cc1OC (stereo not drawn) [Atracurium besylate] | 103
37 | CN(C)c1ccc(C(=C2C=CC(=[N+](C)C)C=C2)c2ccc(N(C)C)cc2)cc1 [Crystal violet] | 106
38 | Oc1cc2c(cc1O)[C@@H]1c3ccc(O)c(O)c3OC[C@]1(O)C2 [Hematoxylin (Hydroxybrazilin)] | 88.4
39 | CC(C(=O)O)c1ccc2c(c1)CC(=O)c1ccccc1S2 (stereo not drawn) [Zaltoprofen] | 102
40 | C[C@@H](O)[C@H]1C(=O)N2C(C(=O)[O-])=C(SC3Cn4cnc[n+]4C3)[C@H](C)[C@H]12 (stereo partly drawn) [Biapenem] | 101
41 | Cc1nc(-c2ccc(OCC(C)C)c(C#N)c2)sc1C(=O)O [Febuxostat (Uloric)] | 100
42 | CC(COc1ccccc1)NC(C)C(O)c1ccc(O)cc1 (stereo not drawn) [Isoxsuprine hydrochloride] | 104
43 | CC(C)(C)c1ccc(C(O)CCCN2CCC(C(O)(c3ccccc3)c3ccccc3)CC2)cc1 (stereo not drawn) [Terfenadine] | 105
44 | C=C1/C(=C\C=C2/CCC[C@]3(C)[C@@H]([C@H](C)/C=C/[C@H](C)C(C)C)CC[C@@H]23)C[C@@H](O)C[C@@H]1O [Doxercalciferol (Hectorol)] | 105
45 | C[C@H]1O[C@@H](Oc2c(-c3cc(O)c(O)c(O)c3)oc3cc(O)cc(O)c3c2=O)[C@@H](O)[C@@H](O)[C@@H]1O [Myricitrin (Myricitrine)] | 97.9
46 | Cc1ccc2c(=O)c3cccc(CC(=O)O)c3oc2c1C | 101
47 | C=C1C(=O)O[C@@H](CCC)[C@@H]1C(=O)O [Butyrolactone 3] | 100
48 | CCOC(=O)NNc1nncc2ccccc12 [Todralazine hydrochloride] | 99.7
49 | CCCCN1CCCCC1C(=O)Nc1c(C)cccc1C (stereo not drawn) [Bupivacaine hydrochloride] | 105
50 | C[N+](C)(C)[C@@H](Cc1c[nH]c(=S)[nH]1)C(=O)[O-] [L-Ergothioneine] | 117
51 | COC1CCN(C(=O)c2cc(Cc3n[nH]c(=O)c4ccccc34)ccc2F)CC1 | 93.5
52 | c1cncc(CN2CCC(n3ncc4c(N5CCOCC5)nc(-c5ccc6[nH]ccc6c5)nc43)CC2)c1 | 88.7

Row | SMILES | mean cytoplasmic OPP incorporation
53 | C=C(C)[C@@H](CC=C(C)C)C[C@@]12C[C@@H](CC=C(C)C)C(C)(C)[C@@](CC=C(C)C)(C(=O)C(C(=O)c3ccc(O)c(O)c3)=C1O)C2=O [Garcinol] | 100
54 | Nc1ccn([C@@H]2O[C@H](CO)[C@@H](O)[C@@H]2O)c(=O)n1 [Cytarabine] | 84.8 ± 8.8
55 | O=S1(=O)c2cccc3cccc(c23)N1CCCN1CCN(c2ccc(F)cc2)CC1 [Fananserin] | 103
56 | Nc1ncnc2c1ncn2C1CCCO1 (stereo not drawn) | 96.6
57 | Cc1[nH]c2ccccc2c1CCNCc1ccc(/C=C/C(=O)NO)cc1 [Panobinostat] | 51.6
58 | Nc1ccc(S(=O)(=O)Nc2ccccn2)cc1 [Sulfapyridine] | 96.3
59 | Cn1cc(-c2ccncc2)c(-c2ccc(OCc3ccc4ccccc4n3)cc2)n1 | 117
60 | O=C(O)[C@H]1O[C@@H](Oc2cc3oc(-c4ccccc4)cc(=O)c3c(O)c2O)[C@H](O)[C@@H](O)[C@@H]1O [Baicalin] | 108
61 | Nc1ccc(C(=O)Nc2cccc(-c3nc(N4CCOCC4)c4oc5ncccc5c4n3)c2)cn1 | 95.2 ± 2
62 | CN(C)CCCN1c2ccccc2Sc2ccc(Cl)cc21 [Chlorpromazine hydrochloride] | 85.4
63 | O=C(O)c1c(Sc2ccccc2)c2cc(Cl)ccc2n1Cc1ccc(Cl)cc1 | 97.6
64 | COc1cc([C@@H]2c3cc4c(cc3[C@@H](O[C@@H]3O[C@@H]5CO[C@@H](c6cccs6)O[C@H]5[C@H](O)[C@H]3O)[C@H]3COC(=O)[C@H]23)OCO4)cc(OC)c1O [Teniposide (Vumon)] | 141
65 | CCOc1ccccc1OC(c1ccccc1)C1CNCCO1 (stereo not drawn) [Reboxetine mesylate] | 106 ± 15
66 | O=c1[nH]cnc2c1ncn2[C@@H]1O[C@H](CO)[C@@H](O)[C@H]1O [Inosine] | 105
67 | CCCCOc1cc(CC2CNC(=O)N2)ccc1OC (stereo not drawn) | 97.5
68 | O=C1NC(=O)/C(=C/c2ccc3c(c2)OC(F)(F)O3)S1 | 94.4
69 | CCOC(=O)[C@@](C)(N)Cc1ccc(O)c(O)c1 [Methyldopate hydrochloride] | 103
70 | O=C(c1ccccc1)c1ccc2n1CCC2C(=O)O (stereo not drawn) [Ketorolac tromethamine] | 102
71 | COc1c(N2CCNC(C)C2)c(F)cc2c(=O)c(C(=O)O)cn(C3CC3)c12 (stereo not drawn) [Gatifloxacin] | 105
72 | CNC(=O)[C@H]1O[C@@H](n2cnc3c(NCc4cccc(I)c4)nc(Cl)nc32)[C@H](O)[C@@H]1O | 101
73 | CCN(CC)CCCC(C)Nc1nc(C)cc(Nc2ccc3nc(C)cc(N)c3c2)n1 (stereo not drawn) | 105 ± 5.5
74 | O=C(C[S+]([O-])Cc1ccco1)NC/C=C\COc1cc(CN2CCCCC2)ccn1 (stereo not drawn) [Lafutidine] | 102
75 | O=[N+]([O-])c1cccc2c[nH]nc12 | 102
76 | C#CCC(Cc1cnc2nc(N)nc(N)c2n1)c1ccc(C(=O)N[C@@H](CCC(=O)O)C(=O)O)cc1 (stereo partly drawn) [Pralatrexate (Folotyn)] | 84.1
77 | CN(CC[C@@H](Oc1ccc(-c2ccccc2)cc1)c1ccc(F)cc1)CC(=O)O [ALX 5407 hydrochloride] | 99.5
78 | O=C(NOCC(O)CO)c1cc(Br)c(F)c(F)c1Nc1ccc(I)cc1F (stereo not drawn) | 91.9

Source: the supplement of paper PMC8183993
